{"source": "PubChem BioAssay AID686979", "about": "(National Center for Advancing Translational Sciences (NCATS), 2013)", "note": "Out of some 420,000 compounds screened, about 50,000 (12%) were called active. Inconclusive results, whose numbers are uncertain, are shown with a selection of clear calls. Calls follow the shape of the dose curve; as a rule, active = well fitted inhibition curve with a large enough effect; inconclusive = small, poorly fitted or top-dose-only effect; inactive = flat fitted curve, though single readings scatter. Potencies of inconclusive entries are left out as doubtful fits. % is scaled to controls: 0 for no effect and ±100 for the full control effect; potency is read from the fitted curve at half-maximal effect; tags tell the direction and shape of the fitted curve."}
{"experiment": "qHTS for Inhibitors of human tyrosyl-DNA phosphodiesterase 1 (TDP1): qHTS in cells in presence of CPT; also: nearly all actives have a fitted effect of over 55% in size", "conditions": "chicken DT40 Tdp1-/-;hTDP1 cells + 20 nM CPT, ATP luminescence, 48 h; activity change, negative = growth inhibition: at 46.2 µM (top of the series)", "excerpt": "Human tyrosyl-DNA phosphodiesterase 1 (TDP1) is a novel repair gene, and we propose to use it as a new target for anticancer drug development. TDP1 is not an essential protein, but under treatment with topoisomerase I poison (camptothecin: CPT), TDP1 works as a critical factor for cell survival. To directly identify novel TDP1 inhibitors active in a cellular environment, we have knocked-out the Tdp1 gene in chicken DT40 cells (Tdp1-/-) and generated a complemented counterpart cells that contains a stable transfection of the human TDP1 gene (Tdp1-/-;hTDP1 cells). For the primary screen, Tdp1-/-;hTDP1 cells will be exposed to small molecules in the presence or absence of CPT, and their growth kinetics will be evaluated after 48 hours by measuring ATP activity. […] The hit compounds will then be evaluated in the presence or absence of CPT using Tdp1-/- cells. […] In tertiary assays, biochemical gel-based assays will be used to assess whether the hit compounds specifically target TDP1. To this end, we have screened this cell line against the MLSMR in two primary screens. In one screen we add CPT and in the other we screen in the absence of CPT; this AID represents the screen where CPT was present. NIH Chemical Genomics Center [NCGC] NIH Molecular Libraries Probe Centers Network [MLPCN] MLPCN Grant: MH095538 Assay Submitter (PI): Yves Pommier, NCI\nDT40-hTDP1 cells with 20 nM Camptothecin (add 20 microL of 1 mM CPT stock in 1 L of cell culture medium) were dispensed at 400 cells/5microL/well in tissue culture treated 1536-well white wall/solid bottom assay plates (Greiner Bio-One North America, NC, U.S.A.) using a Multidrop Combi 8 channel dispenser (Thermo Fisher, Waltham, MA, USA). 23 nL compounds and controls were transferred using the pin tool (Kalypsys, San Diego, CA, USA) to the assay plates. The assay plates were then incubated at 37 masculineC for a minimum 48 hr. Three microL of Cell Titer Glo solution was added to the plates and incubated at RT in dark for 30 min. Luminescence was read using ViewLux (Perkin Elmer) with 1 sec exposure slow speed, high gain and 2x binning."}
{"smiles": "Cc1cccc(Cn2c(-c3ccc[nH]c3=O)nc3ccccc32)c1", "Potency": "inconclusive [inhibitor, partial curve]"}
{"smiles": "Brc1ccc(OCCn2ccnc2)cc1", "activity change, negative = growth inhibition": "inactive: -13.2%"}
{"smiles": "O=S(=O)(c1ccc(Br)cc1)c1nc(-c2cccs2)oc1SCc1ccccc1F", "Potency": "inconclusive [inhibitor, single point]"}
{"smiles": "CNC(=O)C[C@@H]1C(=O)N(c2ccc(Br)cc2)CC1(C)C", "activity change, negative = growth inhibition": "inactive: 6.37%"}
{"smiles": "CCOc1ccccc1CNCCN1CCOCC1", "activity change, negative = growth inhibition": "inactive: -25.3%"}
{"smiles": "CCN(c1ccc(OC)cc1)S(=O)(=O)c1nnc(NC(=O)c2ccc(C)cc2)s1", "Potency": "inconclusive [inhibitor, single point]"}
{"smiles": "CCOC(=O)[C@]12CCC=C1N(Cc1cccc3ccccc13)C(=O)[C@H](CC(=O)NCCCOC)C2", "Potency": "active: 18.4 µM"}
{"smiles": "CCOC(=O)c1ccc(CNc2ncnc3nc[nH]c23)cc1", "Potency": "active: 3.98 µM"}
{"smiles": "COCCn1c(SCc2ccc(F)cc2)nc2c1c(=O)[nH]c(=O)n2C", "activity change, negative = growth inhibition": "inactive: -25.6%"}
{"smiles": "COc1ccc(OC)c(CNS(=O)(=O)c2c(C(=O)N3CCCCCC3)c(C)n(C)c2C)c1", "Potency": "inconclusive [inhibitor, single point]"}
{"smiles": "CCOC(=O)c1c(NC(=O)CSc2nnc(C)s2)sc2c1CCC(C)C2", "note": "(stereo unspecified)", "Potency": "inconclusive [inhibitor, single point]"}
{"smiles": "O=C(NCCCn1ccnc1)c1ccccc1Cl", "activity change, negative = growth inhibition": "inactive: 2.42%"}
{"smiles": "CCCOC(=O)CSc1nc(N2CCOCC2)c2c(c1C#N)CC(C)(C)OC2", "activity change, negative = growth inhibition": "inactive: 1.24%"}
{"smiles": "CCOC(=O)c1[nH]c2cc3c(cc2c1NC(=O)CN1CCC2(CC1)OCCO2)OCO3", "Potency": "inconclusive [inhibitor, single point]"}
{"smiles": "COc1cc(C(O)c2nc(-c3cccc(C(C)C)c3)cs2)ccc1F", "note": "(stereo unspecified)", "Potency": "inconclusive [inhibitor, single point]"}
{"smiles": "CCCCN(Cc1cc2cc(OC)ccc2[nH]c1=O)C(=O)c1ccccn1", "Potency": "inconclusive [inhibitor, single point]"}
{"smiles": "Cc1cc2ccccc2n1CCNC(=O)C(C)(C)C", "activity change, negative = growth inhibition": "inactive: 0.972%"}
{"smiles": "CCOC(=O)C(CC)(CC)C(=O)/C=C/c1cccc(Br)c1", "Potency": "active: 11.6 µM"}
{"smiles": "CN(C)S(=O)(=O)c1cccc(NC(=O)CSc2nc3ccccc3n2-c2ccccc2)c1", "Potency": "inconclusive [inhibitor, single point]"}
{"smiles": "COc1cccc(NC(=O)CN(C)C(=O)COc2ccc3ccccc3c2)c1", "activity change, negative = growth inhibition": "inactive: -17.9%"}
{"smiles": "Cc1ccc(CNC(=O)Cn2cc(S(=O)(=O)Cc3ccccc3F)c3ccccc32)cc1", "Potency": "active: 14.6 µM"}
{"smiles": "O=C(Cc1csc(NC(=O)Nc2cccc(Cl)c2)n1)NCc1ccccn1", "Potency": "active: 2.06 µM"}
{"smiles": "COc1ccc(-c2c(C)nn3c(N4CCC(C(=O)NCCN(C)C)CC4)cc(C)nc23)cc1OC", "Potency": "inconclusive [inhibitor, single point]"}
{"smiles": "O=[N+]([O-])c1ccc(N2CCN(Cc3ccc4c(c3)OCO4)CC2)nc1", "Potency": "inconclusive [inhibitor, single point]"}
{"smiles": "CC(C)Cc1ccc(CN2CCCC(NC(=O)CCN3CCOCC3)C2)cc1", "note": "(stereo unspecified)", "Potency": "inconclusive [inhibitor, single point]"}
{"smiles": "O=C(NCCCNc1ccc(C(F)(F)F)cc1[N+](=O)[O-])c1ccc(F)cc1", "Potency": "active: 16.4 µM"}
{"smiles": "C=CC[C@@H](CC(=O)N[C@H](CO)Cc1ccccc1)C(=O)N[C@@H](COC(=O)[C@@H](CC=C)Cc1ccc(F)cc1)Cc1c[nH]c2ccccc12", "Potency": "active: 16.4 µM"}
{"smiles": "CCCc1nc(SCC(=O)Nc2nnc(CC)s2)c2c(=O)n(C)c(=O)n(C)c2n1", "Potency": "active: 6.51 µM"}
{"smiles": "O=S(=O)(CCOc1ccccc1)c1nc2ccccc2[nH]1", "Potency": "inconclusive [inhibitor, single point]"}
{"smiles": "CCc1ccc2nc(N(CCN(C)C)C(=O)/C=C/c3cccs3)sc2c1", "Potency": "inconclusive [inhibitor, single point]"}
{"smiles": "COc1ccc(Cl)cc1NC(=O)CSC1=Nc2ccccc2C2=NC(CC(=O)NCc3ccc4c(c3)OCO4)C(=O)N12", "note": "(stereo unspecified)", "Potency": "inconclusive [inhibitor, single point]"}
{"smiles": "COc1ccccc1C(=O)Nc1ccc2c(c1)nc(CN1CCCCC1)n2C", "Potency": "inconclusive [inhibitor, single point]"}
{"smiles": "COc1ccc(COC(=O)N/N=C(\\C)CC(=O)Nc2ccc(Cl)cn2)cc1", "activity change, negative = growth inhibition": "inactive: 18.3%"}
{"smiles": "COc1ccc(CCNC(=O)CC(=O)N/N=C\\c2ccc(OCC(N)=O)cc2)cc1OC", "activity change, negative = growth inhibition": "inactive: 18%"}
{"smiles": "CCCCCNC(=O)C(c1ccc(-c2ccccc2)cc1)n1c(=O)c(-c2ccccc2)nc2ccccc21", "note": "(stereo unspecified)", "Potency": "inconclusive [inhibitor, partial curve]"}
{"smiles": "O=C(Nc1cc(Cl)cc(Cl)c1)C1CC(=O)N(C2CCCC2)C1", "note": "(stereo unspecified)", "Potency": "inconclusive [inhibitor, single point]"}
